PubChem BioAssay AID1461 (National Center for Advancing Translational Sciences (NCATS), 2008)
The campaign covered roughly 220,000 compounds. About 2,300 (1%) were called active. This list was built around the results that the source calls inconclusive (neither active nor inactive); the mix of calls is not that of the screen. The call rests on the fitted dose curve; in most records, active means well fitted inhibition curve with a large enough effect; inconclusive means small, poorly fitted or top-dose-only effect, or effect the other way; inactive means no such curve, though single readings can be large or run the other way. Potencies of inconclusive entries are left out as doubtful fits.

biological target: Neuropeptide S receptor (Homo sapiens) (UniProt Q6W5P4); assay: qHTS Assay for Antagonists of the Neuropeptide S Receptor: cAMP Signal Transduction; conditions: CHO-NPSR cells, cAMP TR-FRET, antagonist mode; activity change, negative = inhibition: at 38.3 µM (top of the series) unless noted; further: nearly all actives have a fitted effect of over 50% in size
Sequence of UniProt Q6W5P4 (Q6W5P4 whole entry, looked up): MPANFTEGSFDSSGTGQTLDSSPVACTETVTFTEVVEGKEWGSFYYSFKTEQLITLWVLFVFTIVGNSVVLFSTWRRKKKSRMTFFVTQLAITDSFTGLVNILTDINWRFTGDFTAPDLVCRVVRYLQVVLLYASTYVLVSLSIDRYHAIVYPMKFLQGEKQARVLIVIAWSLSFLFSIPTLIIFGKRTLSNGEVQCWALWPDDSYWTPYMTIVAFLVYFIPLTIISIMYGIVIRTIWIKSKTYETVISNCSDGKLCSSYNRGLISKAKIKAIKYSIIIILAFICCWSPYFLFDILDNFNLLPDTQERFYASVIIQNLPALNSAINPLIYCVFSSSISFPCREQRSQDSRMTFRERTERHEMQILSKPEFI
On the % scale 0 is the no-effect control and ±100 the full control effect; potency means the concentration at half of the fitted maximal effect; tags describe the fitted curve by direction and shape.

Compound	Potency	activity change, negative = inhibition
CCOC(=O)C(Sc1cc(C)nc(N)n1)C(C)=O (stereo not given)	inconclusive [inhibitor, single point]	–
O=C(c1ccc(N2CN(C(=O)c3ccco3)c3nc4ccccc4nc32)cc1)N1CCOCC1	inconclusive [inhibitor, partial curve, poor fit]	–
O=[N+]([O-])c1cccc(Cl)c1NCCNS(=O)(=O)c1ccccc1	–	inactive: 2.33% [at 46.1 µM]
CN1C(=O)/C(=C/c2cn(CC(=O)N3CCCCC3)c3ccccc23)c2ccccc21	inconclusive [inhibitor, single point]	–
Cc1nnc(NC(=O)c2cccc(S(=O)(=O)N3CCc4ccccc43)c2)s1	active: 1.58 µM	–
Cc1cc(OCC(=O)NCc2cccnc2)ccc1[N+](=O)[O-]	–	inactive: 1.92%
CNc1oc(-c2ccccc2Cl)nc1P(=O)(c1ccccc1)c1ccccc1	inconclusive [inhibitor, single point]	–
CCCCN(C)C(=O)c1ccc(S(=O)(=O)N2CCOCC2)cc1	–	inactive: 6.61% [at 46.1 µM]
Cc1ccc2sc(NC(=O)c3ccc(N4C(=O)CCC4=O)cc3)nc2c1C	inconclusive [inhibitor, single point]	–
N#CCSc1nnc(COc2ccccc2)n1-c1ccccc1	inconclusive [inhibitor, single point]	–
CN1C=C/C(=C\c2cc[n+](C)c3ccccc23)c2ccccc21	active: 12.6 µM	–
Cc1ccc(S(=O)(=O)Nc2ccccc2-c2ccccc2NS(=O)(=O)c2ccc(C)cc2)cc1	–	inactive: -9.89% [at 46.1 µM]
CCCCOC(=O)n1c(SCC(=O)N(CC)CC)nc2ccccc21	inconclusive [inhibitor, single point]	–
c1ccc2c(c1)OCC(c1csc3ncnc(N4CCCC4)c13)O2 (stereo not given)	inconclusive [inhibitor, single point]	–
CCOC(=O)c1sc(NC(=O)CSc2nnc(C)s2)c(C(=O)OCC)c1C	inconclusive [inhibitor, partial curve]	–
O=C(N/N=C/C(c1ccccc1)c1ccccc1)c1ccccc1F	inconclusive [inhibitor, single point]	–
COC(=O)C1CCN(c2nc3ccccc3nc2C(C#N)C(=O)OCC(C)C)CC1 (stereo not given)	inconclusive [inhibitor, partial curve]	–
Cc1ccc(N(CC(=O)Nc2cc(Cl)ccc2Oc2ccccc2)S(C)(=O)=O)cc1C	inconclusive [inhibitor, single point]	–
Cc1ccc(N2CC(C(=O)OCc3ccc([N+](=O)[O-])cc3)CC2=O)cc1 (stereo not given)	–	inactive: -8% [at 46.1 µM]
c1ccc(-n2nnnc2-c2cnc(-c3ccncc3)nc2-c2cccs2)cc1	inconclusive [inhibitor, single point]	–
CCC(C)(C)c1ccc(OCCCC[n+]2ccc(C)cc2)c(C(C)(C)CC)c1	inconclusive [inhibitor, single point]	–
O=C(Sc1nnc(-c2ccccc2)o1)N1c2ccccc2Sc2ccccc21	inconclusive [inhibitor, single point]	–
Cc1ccc(N(CC(=O)Nc2ccc3c(c2)OCCO3)S(=O)(=O)c2c(C)n[nH]c2C)cc1	inconclusive [inhibitor, partial curve, poor fit]	–
Cc1cc2ccccc2n1CCNC(=O)Cc1cccc2ccccc12	inconclusive [inhibitor, single point]	–

Compound	Potency	activity change, negative = inhibition
O=C(c1ccc(C#Cc2ccccc2)o1)N1CCN(c2ccccn2)CC1	inconclusive [inhibitor, single point]	–
Cc1ccc(-c2csc3nnc(SCC(=O)NCc4ccc5c(c4)OCO5)n23)cc1	inconclusive [inhibitor, single point]	–
COc1ccc(NS(=O)(=O)c2cc(-c3nnnn3C)ccc2OC)cc1	–	inactive: -4.76% [at 46.1 µM]
S=C(NCCC(c1ccccc1)c1ccccc1)Nc1cccc(Cl)c1	inconclusive [inhibitor, single point]	–
Cc1ccc(NC(=O)CN2CC(C)SC2=NC2CCCCC2)cc1 (stereo not given)	inconclusive [inhibitor, single point]	–
CN1CCN(C(=S)Nc2ccc([N+](=O)[O-])cc2)CC1	–	inactive: -2.3% [at 46.1 µM]
CCOC(=O)N1N=C(CC)CC1(O)C(F)(F)F (stereo not given)	–	inactive: -0.736%
CN1CCN(CC#CC2(O)CCCCC2)CC1	inconclusive [activator, full curve, poor fit]	–
O=C1CN(S(=O)(=O)c2ccccc2)CCN1S(=O)(=O)c1ccccc1	–	inactive: 7.18%
O=C(Nc1ccc(N2CCN(C(=O)c3ccccc3)CC2)cc1)c1cc2ccccc2o1	inconclusive [inhibitor, single point]	–
Cc1cccc(-n2cnc3c(c2=O)c2nc4ccccc4nc2n3Cc2ccco2)c1	inconclusive [inhibitor, single point]	–
CCCCn1c(NS(=O)(=O)c2ccccc2)c(S(=O)(=O)c2ccc(C)cc2)c2nc3ccccc3nc21	–	inactive: 11.2% [at 46.1 µM]
O=C(N/N=C/c1cccnc1)C1CCCCC1	inconclusive [inhibitor, single point]	–
COc1ccc(-c2ccc(-c3noc(-c4ccc(OC)c(OC)c4)n3)c(OC)n2)cc1	–	inactive: -9.54% [at 46.1 µM]
Nc1nc(NCc2ccccc2)nc(-c2ccccc2)n1	inconclusive [inhibitor, single point]	–
c1ccc(-c2nnc(SCC3CCCO3)nc2-c2ccccc2)cc1 (stereo not given)	inconclusive [activator, partial curve]	–
O=c1c2ccccc2nc2n1C(CSCc1ccc(Cl)cc1)CS2 (stereo not given)	–	inactive: -14.7% [at 46.1 µM]
Cc1ccc(Sc2ccc(CN3CCCCC3)cc2[N+](=O)[O-])cc1	inconclusive [activator, single point]	–
CNC(=S)N(CCc1ccc(S(N)(=O)=O)cc1)C1CC(=O)N(c2ccccc2F)C1=O (stereo not given)	inconclusive [activator, single point]	–
COc1ccccc1N1CCN(C(CNS(=O)(=O)c2cc(F)ccc2F)c2cccnc2)CC1 (stereo not given)	–	inactive: -4.65%
N#CC1(C#N)CC(C=O)=C(N)C1(C#N)CC(=O)c1ccc(F)cc1 (stereo not given)	–	inactive: 0.298% [at 46.1 µM]
O=C(CSc1nnc(-c2cccs2)n1-c1cccc(Cl)c1)c1cccc2c1OCCO2	inconclusive [inhibitor, single point]	–
COc1ccc(/C=N/n2c(SC)nnc2-c2ccccc2)cc1C	inconclusive [inhibitor, single point]	–
Cc1ccc([N+](=O)[O-])cc1NC(=O)CCSc1ccc(Cl)cc1	inconclusive [inhibitor, single point]	–

Compound	Potency	activity change, negative = inhibition
Cc1ccc2c(c1)C(=NC1CCCCC1)c1cc3ccccc3nc1-2	inconclusive [inhibitor, single point]	–
CC(C)N(C(=O)CSc1ncnc2sc(-c3ccccc3)cc12)C(C)C	inconclusive [inhibitor, single point]	–
Cc1nc(NC(=O)C2CC3CCCC(C2)C3=O)sc1C (stereo not given)	–	inactive: -0.929% [at 46.1 µM]
CN(C)CCN(C(=O)c1ccc(N2C(=O)CCC2=O)cc1)c1nc2cc3c(cc2s1)OCO3	–	inactive: -4.03%
CCOC(=O)C1=C(NC(=S)NC(=O)c2ccccc2)c2ccccc2CC1C(C)C (stereo not given)	inconclusive [inhibitor, single point]	–
O=C(COC(=O)CCSc1ccccc1)NCc1ccc(F)cc1	–	inactive: 3.83%
Cc1cccn2c(=O)c(/C=C3\SC(=S)N(CC(C)C)C3=O)c(NCCCOC(C)C)nc12	–	inactive: -1.16% [at 46.1 µM]
O=C(Nc1ccccc1)N1CCc2scc[n+]2-c2ccccc21	–	inactive: 4.01%
CCN(CC)c1ccc(/C=N/Nc2nc3ccccc3[nH]2)c(O)c1	inconclusive [inhibitor, single point]	–
Nc1nnc(SCc2coc(-c3ccc(Cl)cc3)n2)s1	inconclusive [activator, partial curve]	–
O=C(COc1ccc2ccccc2c1Br)NNC(=O)Nc1ccccc1	inconclusive [activator, single point]	–
Nc1nonc1C(=O)N/N=C/c1ccc(-c2cccc(C(=O)O)c2)o1	–	inactive: -14.2%
CN(C)CCNC(=O)/C(=C/c1ccc(-c2ccc(Cl)cc2Cl)o1)NC(=O)c1ccccc1	inconclusive [inhibitor, single point]	–
Cc1nn(-c2ccccc2)c2c1C(c1ccc([N+](=O)[O-])cc1)N1C(=N2)C(=O)Nc2ccccc21 (stereo not given)	inconclusive [inhibitor, single point]	–
COc1ccc2nc(C)cc(SCC(=O)Nc3c(C)cc(C)cc3C)c2c1	inconclusive [inhibitor, single point]	–
CCOC(=O)C1(Cc2ccc(Cl)cc2)CCN(Cc2nccn2CC)CC1	–	inactive: 45.5%
O=c1c(Cc2ccc(Cl)cc2Cl)c(O)ccn1Cc1ccc(Cl)cc1	inconclusive [inhibitor, single point]	–
Oc1c(CN2CCCCC2)cc(COCc2ccccc2)c2cccnc12	inconclusive [inhibitor, full curve, poor fit]	–
Cc1cc(Nc2ccccc2)n2nc(C)c(-c3ccccc3)c2n1	inconclusive [inhibitor, single point]	–
C=CCn1c(SCc2nc3ccccc3nc2C)nnc1-c1ccoc1C	inconclusive [inhibitor, single point]	–
CCOc1ccc(-c2[nH]ncc2Oc2ccccc2OCC)c(O)c1	inconclusive [inhibitor, single point]	–
CCOC(=O)c1oc2ccccc2c1CN1CCN(c2ccccc2)CC1	inconclusive [inhibitor, single point]	–
